# In patent publication US12060387B2, “Polypeptide-based shuttle agents for improving the transduction efficiency of polypeptide cargos to the cytosol of target eukaryotic cells, uses thereof, methods and kits relating to same” (priority 2015, dated 2024):
# Like-named read-outs stand apart in the source and are kept apart here. Not every detail of the peptide structures is certain; ends, links or a residue may be inferred. Some results were stated once for a whole list of compounds, not compound by compound. Where no end group is shown, it is not given here.
# Columns and labels:
# THP-1 cells = experiment: GFP-NLS transduction, fluorescence microscopy; type: cell-based, human; conditions: GFP-NLS 5 μM with 5 μM shuttle, 15 seconds, Protocol C
# Balb3T3 cells = experiment: GFP-NLS transduction by His-CM18-PTD4, flow cytometry (Pos cells %); type: cell-based; conditions: Protocol B, shuttle 35 μM, GFP-NLS 5 μM, 10 seconds
# HEK 293T cells = experiment: as above; type: cell-based, Human; conditions: Protocol B, shuttle 35 μM, GFP-NLS 5 μM, 10 seconds
# Myoblasts = experiment: as above; type: cell-based, Human; conditions: Protocol B, shuttle 35 μM, GFP-NLS 5 μM, 10 seconds
# CA46 cells = experiment: as above; type: cell-based, Homo sapiens; conditions: Protocol C, shuttle 5 μM, GFP-NLS 5 μM, 15 seconds
# HeLa cells [1] = experiment: HOXB4-WT transduction, immuno-labelling and visualization by microscopy; type: cell-based, Human; conditions: HOXB4-WT 25 μM with 35 μM shuttle, 10 seconds, Protocol B, 30-minute incubation
# HeLa cells [2] = type: cell-based, Human
# Method: In addition to microscopy, flow cytometry allows a more quantitative analysis of the endosomal leakage as the fluorescence intensity signal increases once the calcein is released in the cytoplasm. Calcein fluorescence is optimal at physiological pH (e.g., in the cytosol), as compared to the acidic environment of the endosome.
# The cells were allowed to attach by incubating overnight in appropriate growth media, as described in Example 1. The next day, the media in wells was removed and replaced with 50 μL of fresh media without serum containing 62.5 μg/mL (100 μM) of calcein, except for HEK293A (250 μg/mL, 400 μM). At the same time, the shuttle agent(s) to be tested was added at a predetermined concentration. The plate was incubated at 37° C. for 30 minutes. The cells were washed with 1×PBS (37° C.) and fresh media containing 5-10% serum was added. The plate was incubated at 37° C. for 2.5 hours. The cells were washed with 1×PBS and detached using trypsinization.
# Untreated calcein-loaded cells were used as a control to distinguish cells having a baseline of fluorescence due to endosomally-trapped calcein from cells having increased fluorescence due to release of calcein from endosomes. Fluorescence signal means (“mean counts”) were analyzed for endosomal escape quantification. In some cases, the “Mean Factor” was calculated, which corresponds to the fold-increase of the mean counts relative to control (untreated calcein-loaded cells). […] The cellular mortality was monitored with the percentage of cells in the total events scanned. When it became lower than the control, it was considered that the number of cellular debris was increasing due to toxicity and the assay was discarded.
# HeLa cells were cultured and tested in the endosomal escape assays as described in Example 2.1. In each case, the flow cytometry results were also confirmed by fluorescence microscopy (data not shown).
# HeLa cells [3] = experiment: Calcein endosomal leakage visualization by microscopy; type: cell-based, Human; conditions: 100 μM calcein+CM18-TAT 5 μM; FIG. 1A; v. untreated calcein-loaded cells
# HeLa cells [4] = experiment: GFP transduction efficiency, flow cytometry (% GFP-positive cells); type: cell-based, Human
# Method: GFP, GFP-NLS and TAT-GFP are recombinant proteins developed and produced by Feldan (see Example 3.4 below).
# Briefly, GFP recombinant protein was co-incubated with different concentrations of CM18-TAT-Cys or dimerized CM18-TAT-Cys (dCM18-TAT-Cys), and then exposed to HeLa cells for 1 hour.
# Briefly, GFP recombinant protein (5 μM) was co-incubated with different concentrations and combinations of CM18-TAT-Cys, CM18-Penetratin-Cys, and dimers of each (dCM18-TAT-Cys, dCM18-Penetratin-Cys), and then exposed to HeLa cells for 1 hour. […] The results are shown in Table 3.3 and FIG. 8, as well as in Table 3.4 and FIG. 9.
# HeLa cells [5] = type: cell-based, Human; remark: listed apart in the source
# HeLa cells [6] = experiment: FITC-labeled anti-tubulin antibody transduction efficiency, flow cytometry; type: cell-based, Human; conditions: antibody 0.5 μM, 1 hour
# HEK293A cells = experiment: Plasmid DNA (pEGFP-Cy5) transfection assay, flow cytometry (Cy5 and GFP emission); type: cell-based, Human; conditions: for Cy5 fluorescence: Mean Cy5 signal (n = 3) / GFP expression: Mean (% of cells with GFP signal; n = 3): pEGFP-Cy5 DNA 500 ng
# [7] = Table 2.3 (FIG. 2), HeLa, peptide 1 μM
# [8] = Table 2.3 (FIG. 2), HeLa, peptide 2 μM
# [9] = Table 2.3 (FIG. 2), HeLa, peptide 3 μM
# [10] = Table 2.3 (FIG. 2), HeLa, peptide 4 μM
# [11] = Table 2.3 (FIG. 2), HeLa, peptide 5 μM
# [12] = Table 2.5 (FIG. 3), HeLa, peptide 5 μM
# [13] = Table 2.5 (FIG. 3), HeLa, peptide 8 μM
# [14] = GFP 5 μM, shuttle 0.5 μM, 1 hour
sequence,measurement,setting,value
HHHHHHKWKLFKKIGAVLKVLTTGYARAAARQARA [His-CM18-PTD4],GFP-NLS intracellular delivery (microscopy),THP-1 cells,successfully delivered intracellularly
same,Mean % cells with GFP signal (±St. Dev.; n = 3),Balb3T3 cells,40.2 ± 3.1%
same,Mean % cells with GFP signal (±St. Dev.; n = 3),HEK 293T cells,55.3 ± 0.2%
same,Mean % cells with GFP signal (±St. Dev.; n = 3),Myoblasts,25.6 ± 2.6%
same,Mean % cells with GFP signal (±St. Dev.; n = 3),CA46 cells,24.4 ± 0.6%
same,HOXB4-WT nuclear delivery (immuno-labelling),HeLa cells [1],successfully delivered to the nucleus after 30 min
KWKLFKKIGAVLKVLTTGYGRKKRRQRRRC [CM18-TAT-Cys],calcein fluorescence intensity by flow cytometry,"HeLa cells [2]; Calcein 100 μM+CM18-TAT 5 μM, FIG. 1B, v. untreated calcein-loaded cells",increase in fluorescence intensity (right-shift)
same,concentrations associated with an increase in cell toxicity,"HeLa cells [2]; HeLa cells, in some cases",above 10 μM
same,"escape of endosomally-trapped calcein, dose dependence","HeLa cells [2]; HeLa, Tables 2.3, 2.4, 2.5",dose-dependent manner
same,escape of endosomally-trapped calcein (mean cellular calcein fluorescence intensity v. controls),"HeLa cells [2]; HeLa, summary of Tables 2.1 and 2.2, 5 μM",increased mean cellular calcein fluorescence intensity
same,Mean Factor,"HeLa cells [2]; Table 2.2, HeLa, peptide 5 μM",5.7
same,Mean counts (n = 3),"HeLa cells [2]; Table 2.2, HeLa, peptide 5 μM",306 572
same,Mean Factor,HeLa cells [2]; [7],1.4
same,Mean counts (n = 3),HeLa cells [2]; [7],86 919
same,Mean Factor,HeLa cells [2]; [8],2.2
same,Mean counts (n = 3),HeLa cells [2]; [8],137 887
same,Mean Factor,HeLa cells [2]; [9],2.7
same,Mean counts (n = 3),HeLa cells [2]; [9],174 327
same,Mean Factor,HeLa cells [2]; [10],4.5
same,Mean counts (n = 3),HeLa cells [2]; [10],290 548
same,Mean Factor,HeLa cells [2]; [11],6.0
same,Mean counts (n = 3),HeLa cells [2]; [11],383 685
same,Mean Factor,"HeLa cells [2]; Table 2.4, HeLa, peptide 3 μM",2.1
same,Mean counts (n = 3),"HeLa cells [2]; Table 2.4, HeLa, peptide 3 μM",170 652
same,Mean Factor,"HeLa cells [2]; Table 2.4, HeLa, peptide 4 μM",3.1
same,Mean counts (n = 3),"HeLa cells [2]; Table 2.4, HeLa, peptide 4 μM",251 799
same,Mean Factor,"HeLa cells [2]; Table 2.4, HeLa, peptide 5 μM",4.1
same,Mean counts (n = 3),"HeLa cells [2]; Table 2.4, HeLa, peptide 5 μM",335 324
same,Mean Factor,HeLa cells [2]; [12],3.0
same,Mean counts (n = 3),HeLa cells [2]; [12],187 180
same,Mean Factor,HeLa cells [2]; [13],5.1
same,Mean counts (n = 3),HeLa cells [2]; [13],321 873
same,Mean Factor,"HeLa cells [2]; Table 2.6, HeLa, monomer 4 μM",2.1
same,Mean counts (n = 4),"HeLa cells [2]; Table 2.6, HeLa, monomer 4 μM",128 461
same,Mean Factor,"HeLa cells [2]; Table 2.7, HeLa, monomer 4 μM",2.8
same,Mean counts (n = 3),"HeLa cells [2]; Table 2.7, HeLa, monomer 4 μM",159 042
same,calcein fluorescence pattern by fluorescence microscopy,HeLa cells [3],"higher intensity, more diffuse fluorescence pattern in a greater proportion of cells"
same,GFP transduction efficiency / intracellular delivery (in words),"HeLa cells [4]; GFP 5 μM, 1 hour, Table 3.3 and FIG. 8",increased
same,GFP transduction efficiency / intracellular delivery (in words),"HeLa cells [4]; GFP 5 μM, 1 hour, Table 3.4 and FIG. 9",increased
same,"Mean (%) (n = 3), FIG. 6A",HeLa cells [4]; [14],8.67%
same,"Mean (%) (n = 3), FIG. 8",HeLa cells [4]; [14],8.75%
same,"Mean (%) (n = 3), FIG. 6A","HeLa cells [4]; GFP 5 μM, shuttle 1 μM, 1 hour",20.03%
same,"Mean (%) (n = 3), FIG. 9","HeLa cells [4]; GFP 5 μM, shuttle 1 μM, 1 hour",20.19%
same,"Mean (%) (n = 3), FIG. 6A","HeLa cells [4]; GFP 5 μM, shuttle 3 μM, 1 hour",31.06%
same,"Mean (%) (n = 3), FIG. 6A","HeLa cells [4]; GFP 5 μM, shuttle 5 μM, 1 hour",36.91%
same,"GFP transduction efficiency, dose dependence","HeLa cells [4]; GFP (5 μM) with 0.5-5 μM shuttle, 1 hour, Table 3.1, FIG. 6A",increases the transduction efficiency of GFP in a dose-dependent manner
same,"Mean (%) (n = 3), FIG. 7A","HeLa cells [4]; shuttle 5 μM, GFP 1 μM",8.56%
same,"Mean (%) (n = 3), FIG. 7A","HeLa cells [4]; shuttle 5 μM, GFP 5 μM",21.1%
same,"Mean (%) (n = 3), FIG. 7A","HeLa cells [4]; shuttle 5 μM, GFP 10 μM",37.1%
same,GFP intracellular delivery (microscopy),"HeLa cells [5]; GFP co-incubated with 3 or 5 μM shuttle, HeLa 1 hour, FIG. 5",delivered intracellularly
same,"GFP intracellular delivery (microscopy, data not shown)","HeLa cells [5]; HeLa, GFP 5 μM with 5 μM of each peptide, 1 hour",successfully delivered intracellularly
same,intracellular delivery of FITC-labeled anti-tubulin antibody (in words),"HeLa cells [6]; shuttle 3.5 μM (combination 3.5 + 0.5 μM), Table 6.1",facilitate intracellular delivery of an FITC-labeled anti-tubulin antibody
same,"Mean (%) (n = 3), FIG. 19A",HeLa cells [6]; shuttle 3.5 μM,36.56%
same,GFP expression from delivered plasmid DNA,"HEK293A cells; 0.05, 0.5 and 5 μM shuttle",no expression of GFP was detected
same,intracellular delivery of plasmid DNA (Cy5 emission),"HEK293A cells; 0.05, 0.5 and 5 μM shuttle, v. DNA alone, 4 hours",increase the intracellular delivery the plasmid DNA
same,Cy5 fluorescence: Mean Cy5 signal (n = 3),HEK293A cells; shuttle 0.05 μM,1450
same,GFP expression: Mean (% of cells with GFP signal; n = 3),HEK293A cells; shuttle 0.05 μM,0.0%
same,Cy5 fluorescence: Mean Cy5 signal (n = 3),HEK293A cells; shuttle 0.5 μM,8362
same,GFP expression: Mean (% of cells with GFP signal; n = 3),HEK293A cells; shuttle 0.5 μM,0.0%
same,Cy5 fluorescence: Mean Cy5 signal (n = 3),HEK293A cells; shuttle 5 μM,140 497
same,GFP expression: Mean (% of cells with GFP signal; n = 3),HEK293A cells; shuttle 5 μM,0.1%
